Source: PubChem BioAssay AID1963576 (National Center for Advancing Translational Sciences (NCATS), 2024)
Hit rate of the full screen: of about 46,000 compounds, about 60 (0.1%) were called active. Roughly 3% stayed inconclusive and do not appear here. Calls follow the shape of the dose curve; as a rule, active = well fitted inhibition curve with a large enough effect; inconclusive = small, poorly fitted or top-dose-only effect; inactive = no such curve, though single readings can be large or run the other way. Some of the results follow.

Test: Primary qHTS assay for Inhibitors of ovarian cancer metastasis using an organotypic tumor microenvironment (TME) model. Also: nearly all actives have a fitted effect of over 65% in size.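 As to activity change, negative = inhibition: plate controls were DMSO wells for no effect and tomatine positive control wells for full effect.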
Conditions: SKOV3ip1-GFP adhesion/invasion on 3D omental model, fluorescence; series mostly up to 45.8 µM; activity change, negative = inhibition: at the top concentration
In short: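 qHTS, 4-pt dose (0.36-46 umol/L); SKOV3ip1-GFP, 1,200 cells/well, no FBS; primary omental fibroblast/mesothelial co-culture 48 h pre-grown; 2 h RT + 16 h 37 C; PBS wash, 4% PFA; GFP count 488/509 nm.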

outcome, inactive:
COc1ccccc1Nc1sc(C(=O)c2ccc(F)cc2)c(N)c1S(=O)(=O)c1ccc(C)cc1, COc1ccc(-c2noc(-c3ccc(N4CCCC4)c([N+](=O)[O-])c3)n2)cc1OC, Cc1cccc(C)c1-n1ncc(C(=O)O)c1C1CCN(C(=O)OC(C)(C)C)CC1, COc1ccc(Cl)cc1NC(=O)c1cn(C2CCCC2)c(=O)c2c1c1ccccc1n2C, COc1ccc(CNC(=O)CSc2ncc3c(n2)-c2ccc(Cl)cc2N(Cc2ccccc2)S3(=O)=O)cc1, Cc1ccc(Cn2c(SCc3ccc(C(=O)N4CCCCC4)cc3)nc3ccncc32)cc1, CC1CCCCN1CCCNC(=O)CN1C(=O)c2cccnc2Oc2ccc(Cl)cc21 (centres undefined), Cc1ccc(-c2nnc(Nc3cccc(Cl)c3)c3ccccc23)cc1S(=O)(=O)N1CCN(C)CC1, CCOc1ccc(Nc2cc(C(=O)NCc3ccccc3Cl)c3ccccc3n2)cc1, O=C(CCCc1ccccc1)NC1CC(=O)N(c2cccc(F)c2)C1 (centres undefined), COc1ccc(CNC(=O)CCc2nnc3n(C)c(=O)c4sccc4n23)cc1

Activity change, negative = inhibition, inactive:
COc1ccc(NC(=O)Cn2c(=O)n(CCC(=O)NCC3CCCO3)c(=O)c3cc(OC)c(OC)cc32)cc1 (centres undefined) -17.7%, CN(Cc1ccccc1)C(=O)c1ccc(CSc2nc3cccnc3n2Cc2ccccc2F)cc1 -9.08%, COc1ccc(Br)cc1S(=O)(=O)Nc1cc(-c2cn3ccccc3n2)ccc1C -0.171%, COc1cccc(/C=C/c2nc(C#N)c(N3CCC(C(N)=O)CC3)o2)c1 -0.75%, O=C1C[C@@H](c2ccc(O)cc2)Oc2cc(O)cc(O)c21 -16.7%, CCOc1cc(C2NC(=O)c3c(sc4c3CCN(C)C4)N2)ccc1OC(=O)c1ccc(Br)cc1 (centres undefined) 18.9%, CCC(=O)O[C@]1(C(=O)CCl)[C@@H](C)C[C@H]2[C@@H]3CCC4=CC(=O)C=C[C@]4(C)[C@@]3(F)[C@@H](O)C[C@@]21C -1.01%, CCc1ccc(-n2nc(C)c3c(C(=O)N4CCN(c5ccccc5)CC4)cc(C)nc32)cc1 1.48%, CCC(=O)N1CCCc2cc(S(=O)(=O)N3CCC(C(=O)NCc4ccc(F)cc4)CC3)ccc21 5.71%, COc1ccc(C)cc1NC(=O)c1cc2c(=O)n3cccc(C)c3nc2s1 4.52%, CCOc1ccc(NC(=O)Cn2cnc3sc(C)c(S(=O)(=O)N4CCN(c5ccccc5OC)CC4)c3c2=O)cc1 0.0812%, COc1ccc(NC(=O)c2ccco2)cc1NC(=O)C(C)(C)Oc1ccc(Cl)cc1 0.634%, Cc1nn2c(C)c(C(=O)NC(C)c3ccccc3)cnc2c1-c1ccc(F)cc1 (centres undefined) 19.1%, O=C(Nc1ccc(F)cc1)c1ccc2c(=O)n3c(nc2c1)CCCCC3 8.57%, COc1ccc(OC)c(C2CC(=O)Oc3c2c(=O)n(C)c2ccccc32)c1 (centres undefined) -6.2%, O=C(NCC(c1cccs1)S(=O)(=O)c1ccccc1)c1ccc(C(F)(F)F)cc1 (centres undefined) -16.3%, Cc1cccc(N(CC(=O)Nc2ccccc2C(F)(F)F)S(=O)(=O)c2ccccc2)c1C -2.83%, Cc1cc(Cl)ccc1OCC(=O)N(Cc1ccco1)Cc1ccccc1F -6.08%, COc1ccccc1C(=O)NC1(C(F)(F)F)C(=O)Nc2c1c(=O)[nH]c(=O)n2-c1ccc(F)cc1 (centres undefined) 7.57%, CCOc1ccccc1NC(=O)CCc1c(C)nn(-c2ccc(N3CCCCC3)nn2)c1C -14.3%, Cc1cccc(Cn2c(-c3cccc(Br)c3)nc3ccccc32)c1 3.32%, CN(C)CCNC(=O)Cn1ccc2cc(S(=O)(=O)N3CCCCCC3)ccc21 -15.7%, COCCCNC(=O)CSc1nc2c(sc3ccccc32)c(=O)n1CCc1ccc(OC)c(OC)c1 32.2%, CCc1ccccc1NC(=O)Cn1nc(CC)n2c(cc3sccc32)c1=O 12.1%, CCc1ccccc1N1C(=O)CN(S(=O)(=O)CC)CC1(C)C(=O)NC1CCCCC1 (centres undefined) -3.38%, NC(=O)c1c(OCc2c(F)cc(Br)cc2F)nsc1NC(=O)NCCCCN1CCCC1 5.21%, CCC(=O)OC1=C(C(C)=O)N(Cc2ccccc2)S(=O)(=O)c2ccccc21 3.86%, COc1ccc(NC(=O)C2CCCN(c3ncnc4onc(C)c34)C2)cc1OC (centres undefined) -10.8%, CCC(=O)N1CCc2cc(CNC(=O)c3cccc(N(C)C)c3)ccc21 9.51%, COc1ccc(C(=O)NCc2ccc3c(c2)CCN3C(C)=O)c(OC)c1 -11.4%, Cc1ccccc1NC(=O)C1CCN(S(=O)(=O)c2c(C)noc2/C=C/c2ccco2)CC1 -8.48%, COc1ccc(-c2cc(C(=O)N3CCCCC3C)no2)cc1OC (centres undefined) -12.2%, Cc1ccc(-c2c3c(=O)n(C)c(=O)n(C)c3c3n2-c2ccccc2NC3c2ccc(C)cc2O)cc1 (centres undefined) 2.82%, CN(C(=O)CSc1nc(-c2ccccc2)no1)c1ccc(F)cc1 9.11%, COc1ccc(C(=O)c2sc3nc4c(c(C(F)(F)F)c3c2N)CN(C(C)=O)CC4)cc1OC -1.55%, CCOc1ccccc1C1C(C(=O)Nc2ccccc2)=C(C)Nc2nc(SCC(=O)c3ccc(C)cc3)nn21 (centres undefined) -28.2%, Cc1ccc(Cl)cc1N1CCN(S(=O)(=O)c2cn(C)c(C)n2)CC1 -5.38%, O=C(COc1ccccc1)Nc1nnc(S(=O)(=O)Nc2ccccc2)s1 -18.7%, CCN(Cc1ccccc1)c1ncnc2c1cnn2-c1ccc(F)cc1 1.1%, O=C(c1ccc(Cl)cc1)N1CCN(CCc2ccncc2)CC1 3.51%, CCOc1ccccc1NC(=O)Nc1nnc(N2CCCC(C)C2)s1 (centres undefined) 5.11%, Cc1cccc(NC(=O)Cn2c(=O)n(CCCCCC(=O)NCc3ccccc3)c(=O)c3sccc32)c1 -28.1%, CCOc1ccc(CNC(=O)C2CCN(C(=O)c3ccc(-n4ccc5ccccc54)s3)CC2)cc1 3.95%, O=C(Nc1ccc(Br)c(Cl)c1)c1ccc(C(=O)Nc2ccc(Br)c(Cl)c2)cc1 2.54%, CCOC(=O)c1cc2c(=O)n3ccccc3nc2n(C)c1=NC(=O)c1c(-c2c(F)cccc2Cl)noc1C 3.13%, Cc1ccc(C)c(N2CCN(S(=O)(=O)c3c(C(=O)N4CCC(C)CC4)c(C)n(C)c3C)CC2)c1 -18.4%, O=C(COc1ccccc1)NCC(c1ccc(Cl)cc1)N1CCCCC1 (centres undefined) 3.05%, CCc1ccc(NC(=O)CSc2nc3c(c(=O)[nH]2)CN(Cc2ccc4c(c2)OCO4)CC3)cc1 5.43%
